Molecules are shown by their SMILES. Among all 310,000 compounds or so, about 14,000 (4.5%) showed an effect of 50% or more. The effect is printed as a negative number. This is one part of the list.
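Note: peak tail current of the secondary pulse compared with the same well before compound.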

For this experiment, the target named is human ether-à-go-go-related gene (hERG) potassium channel (human, UniProt Q12809). Briefly: primary screen, population patch clamp on CHO cells stably expressing hERG.
human ether-à-go-go-related gene (hERG) potassium channel, sequence (Q12809 whole entry, looked up): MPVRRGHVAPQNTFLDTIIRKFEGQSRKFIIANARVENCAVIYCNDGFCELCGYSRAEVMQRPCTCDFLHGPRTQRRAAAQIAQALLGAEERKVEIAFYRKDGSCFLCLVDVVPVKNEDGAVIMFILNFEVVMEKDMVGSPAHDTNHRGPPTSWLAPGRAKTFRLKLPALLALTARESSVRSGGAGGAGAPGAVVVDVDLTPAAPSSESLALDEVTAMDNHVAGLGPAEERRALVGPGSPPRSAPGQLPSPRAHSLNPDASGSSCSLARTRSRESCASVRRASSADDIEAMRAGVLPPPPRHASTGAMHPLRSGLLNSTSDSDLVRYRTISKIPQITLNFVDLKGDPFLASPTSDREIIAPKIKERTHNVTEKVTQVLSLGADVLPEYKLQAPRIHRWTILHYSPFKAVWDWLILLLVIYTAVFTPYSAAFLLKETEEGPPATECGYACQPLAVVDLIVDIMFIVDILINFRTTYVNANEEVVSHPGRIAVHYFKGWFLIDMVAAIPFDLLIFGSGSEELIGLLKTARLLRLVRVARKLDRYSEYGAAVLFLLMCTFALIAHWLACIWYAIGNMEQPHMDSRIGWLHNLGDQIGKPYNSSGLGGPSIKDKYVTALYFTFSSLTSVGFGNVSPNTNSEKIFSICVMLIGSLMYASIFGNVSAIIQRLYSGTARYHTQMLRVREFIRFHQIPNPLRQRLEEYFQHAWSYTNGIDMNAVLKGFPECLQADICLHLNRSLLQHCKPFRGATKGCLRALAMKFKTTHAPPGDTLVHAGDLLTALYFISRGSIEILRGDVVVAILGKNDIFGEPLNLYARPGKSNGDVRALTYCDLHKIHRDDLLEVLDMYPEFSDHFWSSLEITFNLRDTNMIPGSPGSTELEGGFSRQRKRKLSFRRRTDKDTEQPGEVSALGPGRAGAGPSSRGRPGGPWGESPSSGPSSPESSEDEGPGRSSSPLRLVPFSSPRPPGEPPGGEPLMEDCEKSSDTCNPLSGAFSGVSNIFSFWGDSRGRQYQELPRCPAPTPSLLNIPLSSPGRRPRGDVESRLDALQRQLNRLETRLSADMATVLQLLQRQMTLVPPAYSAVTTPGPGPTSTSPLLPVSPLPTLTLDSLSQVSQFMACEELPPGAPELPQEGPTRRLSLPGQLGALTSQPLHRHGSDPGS
In the case of `COc1ccc(CC(=O)Nc2ccc(C(=O)NC(C)(C)C)cc2)cc1`, the “hERG current change (%, negative = inhibition) at 10uM” value is 3.23%. Take `CCC1CCCCN1C(=O)COc1ccc(F)cc1` (centres unmarked): the “hERG current change (%, negative = inhibition) at 10uM” value stood at 7.24%.

Consider `COC(=O)C1=C(CS(=O)(=O)c2ccccc2)NC(=O)NC1c1ccc(O)cc1` (centres unmarked), for which the “hERG current change (%, negative = inhibition) at 10uM” value turned out to be 12.1%. As for `CC(C)(C)NC(=O)NC(=O)Cn1ccsc1=N.Cl`, the figure is 1.61%; as for `Cc1ccccc1C(=O)NC1CCN(CC(=O)Nc2nccs2)CC1`, -14.4%; as for `CCOc1cc(-c2c(C)c(C)nc(N)c2C#N)ccc1O`, -0.923%.

`Cc1cccc2c(SCC(=O)NCC3CCCO3)nc(-c3ccc(F)cc3)nc12` (centres unmarked): the “hERG current change (%, negative = inhibition) at 10uM” value was -4.76%.

Regarding `Cc1ccc2nc(/C(C#N)=C\c3ccc(Oc4ccc(C(F)(F)F)cc4[N+](=O)[O-])cc3)[nH]c2c1`, the “hERG current change (%, negative = inhibition) at 10uM” value came out at 20.8%.

As to `COc1ccc(C2CC(c3c(-c4ccccc4)c4cc(Cl)ccc4[nH]c3=O)=NN2S(C)(=O)=O)cc1` (centres unmarked), the “hERG current change (%, negative = inhibition) at 10uM” value is listed as 4.99%. With `CCCC(=O)Nc1cc2c3c(c1)CC(=O)N3CCC2`, the “hERG current change (%, negative = inhibition) at 10uM” value is -2.64%. As for `Cc1cc(C)cc(NC(N)=S)c1`, the figure is 3.83%; as for `Cl.NCC12CC3CC(CC(O)(C3)C1)C2`, 13.2%; as for `CC1(C)Cc2ccccc2C2=NNC(=O)C2=N1`, 15.9%. Take `O=C(O)c1ccc2c(c1)C(=O)N(CCCCCCCN1C(=O)c3ccc(C(=O)O)cc3C1=O)C2=O`: the “hERG current change (%, negative = inhibition) at 10uM” value amounted to 20.7%.

Turning to `CCOc1ccc2nc(NC(=O)c3cnccn3)sc2c1`, the “hERG current change (%, negative = inhibition) at 10uM” value was 2.76%. As to `Cc1cc(C)cc(NC(=S)/C(=C(\[O-])c2ccc(Cl)cc2Cl)[n+]2ccccc2)c1`, the “hERG current change (%, negative = inhibition) at 10uM” value is 0.16%. As for `CC1CCC2C(=O)N(c3ccc(Cc4ccncc4)cc3)C(=O)C2C1` (centres unmarked), the figure is 10.4%; as for `CC(C)(C)c1cc(NS(=O)(=O)c2cccs2)no1`, 15.6%. As to `Cc1ccc(OCC(=O)NC2CCSc3ccccc32)cc1` (centres unmarked), the “hERG current change (%, negative = inhibition) at 10uM” value is reported as -11.4%.

Take `S=c1nc[nH]c2c1sc1nc(N3CCOCC3)c3c(c12)CCCC3`: the “hERG current change (%, negative = inhibition) at 10uM” value is listed as 35.3%. As for `NS(=O)(=O)c1cccc(NC(=O)CNC(=O)CC23CC4CC(CC(C4)C2)C3)c1`, the figure is 7.32%; as for `COc1ccc(C(=O)NCCCNC(=O)c2ccco2)cc1OC`, 6.63%.

As for `Cc1nn(-c2ncc(C(F)(F)F)cc2Cl)c(=O)n1-c1ccccc1`, the “hERG current change (%, negative = inhibition) at 10uM” value is 19.9%.

With `C=CCN1C(=O)c2ccc(C(=O)NCCOc3ccccc3F)cc2C1=O`, the “hERG current change (%, negative = inhibition) at 10uM” value is -28.7%.

Regarding `C=CCNCCCCOc1ccccc1-c1ccccc1.O=C(O)C(=O)O`, the “hERG current change (%, negative = inhibition) at 10uM” value is -19.3%. As for `O=C(Oc1ccccc1C(=S)N1CCCCC1)c1cc([N+](=O)[O-])cc([N+](=O)[O-])c1`, the figure is 2.81%.

Turning to `COc1ccc(OC)c(NC(=O)c2sc3ncnc(N4CCN(c5ccccn5)CC4)c3c2C)c1`, the “hERG current change (%, negative = inhibition) at 10uM” value is listed as -4.37%. For the compound `O=CN1Cc2[nH]c3ccccc3c2N(c2ccc(Cl)cc2)C1=O`, the “hERG current change (%, negative = inhibition) at 10uM” value is -2.87%. As for `COc1ccccc1OCC(=O)/C=C1/N(C)c2ccccc2C1(C)C`, the figure is -27.3%; as for `Cn1c(C(=O)N(Cc2ccccc2)Cc2cccs2)cc2sccc21`, -6.39%; as for `CC1=NNC(=O)C1CCC(=O)N/N=C(\C)c1ccccc1` (centres unmarked), 28.3%. As for `CCn1c(SCC(=O)NCC2CCCO2)nc2cc(S(=O)(=O)N3CCCCC3)ccc21` (centres unmarked), the figure is -21.2%; as for `COc1ccc(OC)c(-n2nnnc2SCC(=O)Nc2nc(C)c(C)s2)c1`, -1.73%. For `O=C(CSc1ccc2nnc(CCNC(=O)c3ccccc3)n2n1)NCCc1ccccc1`, the “hERG current change (%, negative = inhibition) at 10uM” value is 2.97%. As for `Cl.NCCCC[C@@H](C(=O)N1CCNCC1)n1cc([C@@H](N)CO)nn1`, the figure is -0.997%. On to `C/C(=N\NC(=O)CC1N=C(Cc2ccccc2)NNC1=O)c1ccc(C)cc1` (centres unmarked), for which the “hERG current change (%, negative = inhibition) at 10uM” value is recorded as -7.11%. In the case of `Cc1nnc(SCc2cccc3ccccc23)s1`, the “hERG current change (%, negative = inhibition) at 10uM” value was -22.8%. As for `Cc1ccccc1CSc1nc(C(C)(C)C)cc(=O)[nH]1`, the figure is 11.8%. As for `Cc1ccc2c(c1)CC1(CN2C)C(=O)NC(=O)N(c2ccc(C)c(C)c2)C1=O` (centres unmarked), the figure is -8.83%; as for `CCC1CCCCN1CCCNS(=O)(=O)c1ccc2c(c1)oc(=O)n2C` (centres unmarked), 3.32%; as for `CC(NCC(O)COc1ccc(Br)cc1)c1ccccc1.Cl` (centres unmarked), 0.452%. As for `COc1ccc2c(CC(=O)OCC(=O)Nc3sc4c(c3C#N)CCC(C)C4)coc2c1` (centres unmarked), the figure is 11.4%; as for `O=C(O)[C@H](Cc1ccccc1)NC(=O)N1CCN(c2cccc(C(F)(F)F)c2)CC1`, 10.2%; as for `COc1ccc(OC)c(NC(=O)C(CC(=O)O)NCc2ccco2)c1` (centres unmarked), 25%.

`COc1ccc(NC(=O)c2cc([N+](=O)[O-])ccc2N2CCCC2)cc1`: the “hERG current change (%, negative = inhibition) at 10uM” value is -1.73%. `Cc1oc2cc(OC(=O)c3ccco3)ccc2c(=O)c1-c1nc2ccccc2n1C`: the “hERG current change (%, negative = inhibition) at 10uM” value is 25.1%.

As to `CC(C)OC(=O)Cn1nnc(-c2ccccc2)n1`, the “hERG current change (%, negative = inhibition) at 10uM” value turned out to be 0.0206%. As for `COc1ccc(NC(=S)NC(NC(=O)c2ccc(Cl)cc2Cl)C(Cl)(Cl)Cl)c([N+](=O)[O-])c1` (centres unmarked), the figure is 10.9%; as for `CC(C)(C)C(=O)Nc1ccc(-c2csnn2)cc1`, 8.19%.

With `Cc1ccc(C(=O)N2C3C=CC(C3)C2(C(F)(F)F)C(F)(F)F)cc1` (centres unmarked), the “hERG current change (%, negative = inhibition) at 10uM” value is on record as -12%.

On to `CC(=O)NC(CSc1cc(C)nc2ccc(Br)cc12)C(=O)O` (centres unmarked), for which the “hERG current change (%, negative = inhibition) at 10uM” value is listed as 13.1%. As for `O=C(O)CNc1ccc(S(=O)(=O)C(F)(F)F)cc1[N+](=O)[O-]`, the figure is -5.66%. As for `COc1ccc(NC(=S)Nc2cccc(C)n2)cc1`, the figure is 7.19%; as for `COc1ccc(CN(C(C)=O)c2ccccc2C(=O)O)cc1`, 3.15%; as for `CC(C)(C)c1ccc(Oc2ncccc2NC(=O)c2cccs2)cc1`, -1.31%. As for `CCC(c1nnnn1Cc1ccco1)N1CCN(C(=O)c2ccco2)CC1.Cl` (centres unmarked), the figure is -20.6%; as for `CN(c1ccccc1C(=O)O)S(C)(=O)=O`, 15.8%; as for `COc1ccc(Cl)cc1NC(=S)NNC(=O)CC(C)C`, 12.7%.

Consider `O=c1oc2ccccc2c2c1ncn2C1CCCCC1`, for which the “hERG current change (%, negative = inhibition) at 10uM” value is -51.7%. As for `COc1ccccc1NC(=O)c1ccccc1-c1nc(-c2ccccc2OC)no1`, the figure is -57.7%; as for `Clc1cc(Cl)cc(CSc2nnc(-c3sccc3-n3cccc3)o2)c1`, 3.61%. As for `CC(NC(=O)CN(C)CC(=O)Nc1ccc(F)c(F)c1F)c1ccccc1` (centres unmarked), the figure is 10.2%; as for `O=C(Cc1ccsc1)NNC(=O)c1ccccc1Cl`, 3.62%. With `O=C(NCCCc1ccccc1)Nc1cccc(Cl)c1`, the “hERG current change (%, negative = inhibition) at 10uM” value is -6.83%. As for `CC1=NNC(=O)C1CCC(=O)N/N=C/c1ccc(Cl)cc1` (centres unmarked), the figure is 27.8%.

`Cc1c(Cl)cccc1NC(=O)Nc1cnccn1`: the “hERG current change (%, negative = inhibition) at 10uM” value was 15.3%. As for `CC(=O)c1ccc(NC(=O)c2ccccc2-c2ccccc2C(=O)O)cc1`, the figure is 20.9%; as for `CC1=C(C(N)=O)C(c2ccccc2[N+](=O)[O-])n2ncnc2N1` (centres unmarked), 7.69%.

Consider `O=C1CC(/C=C/c2ccccn2)=Nc2ccccc2N1`, for which the “hERG current change (%, negative = inhibition) at 10uM” value came out at 12%.

Turning to `CC(C)CCOc1ccc(C(=O)O)cc1`, the “hERG current change (%, negative = inhibition) at 10uM” value is 17.2%. `CN(C)CCCN(Cc1ccccc1)C(=S)Nc1cccc(C(F)(F)F)c1`: the “hERG current change (%, negative = inhibition) at 10uM” value was -52.6%.

With `COC(=O)C(C)N(C(=O)c1ccc(C(=O)c2ccccc2)cc1)c1c(C)cccc1C` (centres unmarked), the “hERG current change (%, negative = inhibition) at 10uM” value is reported as -16.7%. As for `O=C(C1CC1)N1CCN(c2nc3ccccc3s2)CC1`, the figure is -25.5%.

Turning to `N#Cc1ccccc1Sc1ccccc1C(=O)OCC(=O)NC1CCS(=O)(=O)C1` (centres unmarked), the “hERG current change (%, negative = inhibition) at 10uM” value is 10.4%. As for `CCOC(=O)CC1C(=O)NCCN1S(=O)(=O)c1cc(Cl)c(Cl)cc1Cl` (centres unmarked), the figure is -26.5%. On to `CCOC(CNC(=O)CN1C(=O)COc2ccc(S(=O)(=O)N3CC(C)CC(C)C3)cc21)OCC` (centres unmarked), for which the “hERG current change (%, negative = inhibition) at 10uM” value is 10.1%. As for `CC(C)c1ccc(OCC(=O)NNC(=O)c2cnccn2)cc1`, the figure is 2.59%; as for `OCC(Cc1ccccc1)Nc1c2ccccc2nc2ccccc12` (centres unmarked), -71.2%. As for `Cc1ccc(NC(=O)COC(=O)Cn2nc(C)c([N+](=O)[O-])c2C)c([N+](=O)[O-])c1`, the figure is 15.3%; as for `CCN1CCN(S(=O)(=O)c2ccc(-c3cc(C)no3)s2)CC1`, 1.9%; as for `Cn1cc(S(=O)(=O)N2CCc3ccccc32)cc1C(=O)Nc1ccc(Cl)cc1`, 2.62%. With `Cc1cccc(C(=O)OCC(=O)N2CCCCCC2)c1O`, the “hERG current change (%, negative = inhibition) at 10uM” value is recorded as 2.78%. As for `COC(=O)C1=C(C)OC(N)=C(C#N)C1c1cccnc1` (centres unmarked), the figure is 13.3%; as for `O=C(NC1CC1)C1=C[C@H](c2csc3ccccc23)C[C@H](OCc2ccc(CO)cc2)O1`, -30%. As for `O=C(COc1ccc(Br)cc1)c1ccc2c(c1)CCCC2`, the figure is -1.14%; as for `COCC(C)n1c(C)cc(C(=O)CSc2cc(C)c3ccccc3n2)c1C` (centres unmarked), 4.64%. As for `CC1(C)CC2CC(C)(CN2C(=O)c2cc(-c3ccc(F)cc3)on2)C1` (centres unmarked), the figure is 6.4%; as for `O=C(Nc1ccc(N2CCN(c3ccc(C(F)(F)F)cn3)CC2)nc1)c1cccs1`, 6.54%; as for `COc1ccc(OCC(O)CN(CCO)CC(O)Cn2ccc3ccccc32)cc1` (centres unmarked), -16.5%.

The values above are taken from article PMC4336329 (PLoS ONE, 2015).
